# About 540 (0.36%) of roughly 150,000 compounds showed an effect of 50% or more. Some of the results follow.
# Tested on: Plasmodium falciparum
# Assay: Primary screen in NF54 nanoGlo assay, in single point, at 2uM, 72h; a lower Z score goes with more inhibition
# Type: functional, Erythrocyte
# Settings: timepoint 72 hour
Compound,% Inhibition [%],Z score
Cc1ccc(CCN2C(=O)CC[C@@H]3CN(C(=O)c4cc[nH]n4)CC[C@@H]32)o1,-18,1.62
CN1CCOC(C(=O)N2CC3CCCCC3C2)C1 (centres undefined),-19,2.61
O=C(NC1CCCCC1)[C@H]1CC(=O)N(Cc2cc(C(F)(F)F)cc(C(F)(F)F)c2)C1,6,-0.66
Cn1cc(CNC(=O)c2ccc(OCc3ccc(Cl)cc3)cc2)cn1,-8,1.08
C#CCN1CCC[C@H]1C(=O)Nc1ccc(OCc2nc(C)no2)cc1,6,-0.74
CN(C(=O)c1sccc1Cl)[C@@H]1CCCC[C@@H]1O,-4,0.68
COc1c(C)ncnc1N1CCN(CCc2cccs2)CC1,-3,0.48
CCCc1ncncc1-c1nc(C2(c3ccccc3)CC2)nn1CC(=O)O,-10,0.97
CCC[C@H]1CN(C(=O)CCc2ccsc2)C[C@@H]1N(C)C,-4,0.71
O=S(=O)(c1cccs1)N1CC[C@H](n2ccnn2)C1,-9,1.54
CC[C@H](C)C(=O)NOCc1ccccc1,-9,1.67
COc1ccc([C@@H]2Cn3nnc(C(=O)N4CCC(C(=O)NCCc5ccccc5)CC4)c3CO2)cc1,-16,1.51
O=C(NCc1cccnc1N1CCOCC1)[C@H]1CCCN(c2cc(-n3cncn3)ncn2)C1,20,-2.48
CC(=O)N1CCC[C@H](c2nc3c(s2)CCC3(C)C)C1,12,-1.52
Cc1cccc(C(=O)N(C)CC2CCCCC2)n1,-2,0.3
O=C(Cc1cccc2cnccc12)NC1CC(C2CCCCC2)C1 (centres undefined),-10,1.31
COc1cc2ccc1Oc1cccc(c1)CO[C@H]1CN(C(=O)c3ncoc3C)C[C@@H]1NC(=O)CN(C1CC1)C(=O)CC2,-11,2.12
c1cncc(CN2CCC(N3CC4(CCCCC4)[C@H]3c3ccncc3)CC2)c1,-8,1.23
Cc1ccccc1C(C)Cc1nnc([C@H]2CCO[C@@H]2c2ccccc2)o1 (some centres undefined),-6,1.05
CC(C)(NS(=O)(=O)CCNC(=O)OCc1ccccc1)C1CC1,-7,0.92
C[C@@H](C1CCN(c2ncc(Cl)cc2F)CC1)N1CCCC1,-10,1.68

Compound,% Inhibition [%],Z score
O=C(c1ccc2ccccc2c1)N1CCCN(C[C@H]2CN(C(=O)c3cccs3)CCO2)CC1,-19,1.84
CC(=O)N1CCC[C@H]1C(=O)N1CC=C(c2c[nH]c3ccccc23)CC1,11,-1.56
Cc1c(Cl)cccc1NC(=O)CN(C)S(=O)(=O)c1ccc2c(c1)C[C@H](C)N2C(=O)C1CCC1,-4,0.68
CCC(CC)c1nnc(NC(=O)c2ccc(CNC(=O)c3cccs3)cc2)s1,13,-2.38
O=C(COc1ccc(F)cc1)N1CC[C@H](N2C(=O)COC2=O)C1,-4,0.64
CCOc1ccccc1NC(=O)c1cc2nccc(-c3ccc(OC)c(OC)c3)n2n1,-11,1.11
COc1cnc(NC(=O)NCCc2nc3c(s2)CCC3)s1,-6,1.16
N#Cc1c(-c2ccc(Cl)cc2)ccn2nc(-c3c(F)cccc3F)nc12,-3,0.36
CN1C[C@@H](C(=O)N2CCc3c2cccc3C(F)(F)F)CC1=O,-2,0.2
Cc1ccc(-n2nnc(-c3nc(-c4ccc5c(c4)OCO5)cs3)c2N)cc1F,16,-1.84
Cc1nnc([C@H]2CN(C(=O)C(C)C)CC23CCN(C(=O)COc2ccccc2)CC3)o1,-5,0.93
COc1cc2c(-c3ccccc3)c(C)oc2cc1CN1CCC(C)CC1,1,-0.19
CC1CCC(N(Cc2nnc(C(C)C)o2)C[C@H]2CCCO2)CC1 (some centres undefined),-10,0.93
Cn1c(CNS(=O)(=O)CCC2CCOCC2)nnc1C1CC1,-14,2.31
Cc1cc(C(=O)Nc2ccc3c(c2)OCCCO3)c(C)o1,-7,0.99
COCCc1nnc(NC(=O)c2cc(C)on2)o1,-1,0.11
COc1ccc2nc(-c3ccc(NS(=O)(=O)c4c(C)nn(C)c4C)cc3)sc2c1,-4,0.43
OC1(CN[C@H]2CCc3cccnc3CC2)CCC(F)(F)CC1,-9,1.63
COCCN1C[C@@H](Cc2cccc3cc[nH]c23)CC1=O,-5,0.83
CC(C)CC1(C(=O)O)NC(c2ccccc2O)C2C(=O)N(Cc3ccccc3)C(=O)C21 (centres undefined),-10,1.35
Cc1cc(-c2nc(-c3cccs3)no2)n(C)n1,-12,1.11
